Results reported in the supplement of paper PMC11125491.
± gives the standard deviation of the averaged measurements. Growth of baker's yeast expressing single-residue variants of Pneumocystis jirovecii dihydrofolate reductase in 8.8 or 44 µM methotrexate (about 75% and 90% inhibition of the wild type). Selection coefficient per generation; 0 = like wild type, above 0 = less sensitive, below 0 = more sensitive or loss of function. No active / inactive call per row; the paper calls resistant above 0.220 (8.8 µM) or 0.243 (44 µM) together with a significance test. At 44 µM about 15% of codons end with one read or none, so the lowest values are floors (replicate rank correlation 0.74; 0.94 at 8.8 µM).

B1: UniProt A0EPZ9; numbered along this chain (parent)
chain: MDWQKSLTLIVALTLSRGIGLKNDLPWKLKSDMMFFSRVTSGLLVTRSTGQMNVVLMGRKTWESLPAHSRPLKNRINVVISRQEVLDLGGGAYHARSLDDALALLSQIYDSTSKIQLNRVFVIGGGELCKAAMEHSRLNRIIATVIHNEVDCDVFFPIDFRSSQSCLPWRKQDHSVLEAWVGSKVPQGKINENGFIYEFEMWIRDI

Variants of: B1
Test: selection coefficient against synonymous wild-type codons (log2 per generation); higher = faster growth than wild type
Settings: with Saccharomyces cerevisiae carrying the variant on a plasmid
Procedure: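 Pooled growth of yeast carrying single-residue variants of P. jirovecii dihydrofolate reductase (own DFR1 gene intact), two passages at 30 °C, three cultures, sequenced before and after. Codons with under 15 starting reads are left out; codons of one change are averaged.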

Row | Variant | selection coefficient against synonymous wild-type codons (log2) (methotrexate 8.8 µM) | selection coefficient against synonymous wild-type codons (log2) (methotrexate 44 µM)
1 | N148C | -0.146 ± 0.049 | -0.159 ± 0.092
2 | N148H | -0.191 ± 0.072 | -0.295 ± 0.1
3 | N148F | -0.235 ± 0.082 | -0.255 ± 0.053
4 | N148P | 0.0618 ± 0.085 | 0.0938 ± 0.36
5 | N148S | 0.0688 ± 0.078 | 0.11 ± 0.28
6 | N148G | 0.0231 ± 0.048 | 0.067 ± 0.092
7 | N148D | 0.137 ± 0.043 | 0.06 ± 0.047
8 | N148A | -0.0988 ± 0.049 | -0.212 ± 0.14
9 | N148Y | -0.13 ± 0.034 | -0.228 ± 0.096
10 | N148K | -0.0548 ± 0.083 | -0.0841 ± 0.072
11 | N148T | -0.0372 ± 0.039 | -0.151 ± 0.1
12 | N148Q | -0.0245 ± 0.036 | -0.0514 ± 0.065
13 | N148L | -0.209 ± 0.086 | -0.281 ± 0.11
14 | N148V | -0.297 ± 0.025 | -0.235 ± 0.098
15 | N148E | 0.108 ± 0.057 | 0.106 ± 0.038
16 | N148I | -0.467 ± 0.23 | -0.219 ± 0.018
17 | N148R | -0.053 ± 0.043 | -0.167 ± 0.14
18 | N148M | -0.223 ± 0.05 | -0.333 ± 0.16
19 | N148W | -0.197 ± 0.0087 | -0.245 ± 0.096
20 | T144E | -0.668 ± 0.091 | -0.215 ± 0.081
21 | T144P | -0.476 ± 0.12 | 0.353 ± 0.028
22 | T144Q | -0.674 ± 0.12 | -0.447 ± 0.045
23 | T144Y | -0.75 ± 0.11 | -0.4 ± 0.1

Row | Variant | selection coefficient against synonymous wild-type codons (log2) (methotrexate 8.8 µM) | selection coefficient against synonymous wild-type codons (log2) (methotrexate 44 µM)
24 | T144V | 0.246 ± 0.028 | 0.466 ± 0.033
25 | T144W | -0.572 ± 0.079 | -0.364 ± 0.038
26 | T144G | 0.221 ± 0.035 | 0.44 ± 0.044
27 | T144K | -0.73 ± 0.043 | -0.227 ± 0.059
28 | T144D | 0.0624 ± 0.041 | 0.305 ± 0.04
29 | T144A | 0.211 ± 0.021 | 0.46 ± 0.35
30 | T144C | 0.401 ± 0.011 | 0.54 ± 0.041
31 | T144N | 0.22 ± 0.28 | 0.393 ± 0.34
32 | T144L | -0.672 ± 0.15 | -0.347 ± 0.15
33 | T144I | -0.312 ± 0.057 | 0.176 ± 0.071
34 | T144F | -0.604 ± 0.03 | -0.401 ± 0.056
35 | T144S | -0.0616 ± 0.035 | -0.077 ± 0.11
36 | T144R | -0.748 ± 0.16 | -0.411 ± 0.04
37 | T144H | -0.681 ± 0.21 | -0.321 ± 0.041
38 | T144M | -0.412 ± 0.037 | 0.0129 ± 0.072
39 | V145M | -0.141 ± 0.019 | -0.13 ± 0.091
40 | V145F | -0.1 ± 0.022 | -0.113 ± 0.12
41 | V145D | -0.0762 ± 0.059 | -0.0366 ± 0.048
42 | V145L | -0.221 ± 0.053 | -0.191 ± 0.14
43 | V145G | 0.012 ± 0.031 | 0.0892 ± 0.23
44 | V145T | 0.037 ± 0.043 | 0.0896 ± 0.072
45 | V145I | -0.0377 ± 0.086 | -0.0592 ± 0.2
46 | V145R | 0.294 ± 0.041 | 0.382 ± 0.041

Row | Variant | selection coefficient against synonymous wild-type codons (log2) (methotrexate 8.8 µM) | selection coefficient against synonymous wild-type codons (log2) (methotrexate 44 µM)
47 | V145Q | -0.0249 ± 0.12 | -0.171 ± 0.13
48 | V145S | -0.009 ± 0.039 | 0.00539 ± 0.12
49 | V145Y | 0.0212 ± 0.04 | 0.0723 ± 0.09
50 | V145N | 0.0681 ± 0.041 | 0.0901 ± 0.19
51 | V145E | -0.0421 ± 0.046 | -0.0785 ± 0.051
52 | V145H | 0.149 ± 0.053 | 0.175 ± 0.07
53 | V145W | -0.23 ± 0.013 | -0.222 ± 0.12
54 | V145P | -0.099 ± 0.04 | 0.00469 ± 0.037
55 | V145K | 0.23 ± 0.017 | 0.31 ± 0.07
56 | V145C | 0.0109 ± 0.00048 | -0.00226 ± 0.084
57 | V145A | -0.0852 ± 0.026 | -0.167 ± 0.15
58 | R140Q | 0.0916 ± 0.027 | 0.0888 ± 0.078
59 | R140Y | -0.153 ± 0.08 | -0.102 ± 0.12
60 | R140F | -0.199 ± 0.083 | -0.187 ± 0.046
61 | R140W | -0.4167 ± 0.0039 | -0.38 ± 0.04
62 | R140D | -0.231 ± 0.079 | -0.197 ± 0.033
63 | R140G | 0.0713 ± 0.024 | 0.121 ± 0.062
64 | R140K | 0.00524 ± 0.051 | 0.0908 ± 0.12
65 | R140L | -0.304 ± 0.081 | -0.266 ± 0.11
66 | R140N | 0.0456 ± 0.068 | 0.0894 ± 0.079
67 | R140P | -0.388 ± 0.1 | -0.127 ± 0.06
68 | R140C | 0.114 ± 0.0064 | 0.0724 ± 0.075
69 | R140M | -0.019 ± 0.023 | -0.0717 ± 0.034

Row | Variant | selection coefficient against synonymous wild-type codons (log2) (methotrexate 8.8 µM) | selection coefficient against synonymous wild-type codons (log2) (methotrexate 44 µM)
70 | R140A | 0.151 ± 0.039 | 0.188 ± 0.047
71 | R140T | 0.0992 ± 0.048 | 0.102 ± 0.046
72 | R140V | -0.0454 ± 0.026 | -0.0816 ± 0.076
73 | R140I | -0.206 ± 0.051 | -0.155 ± 0.12
74 | R140H | 0.0205 ± 0.015 | 0.0952 ± 0.09
75 | R140S | 0.111 ± 0.04 | 0.118 ± 0.18
76 | R140E | -0.0202 ± 0.0075 | 0.0289 ± 0.048
77 | A143C | 0.112 ± 0.0038 | 0.167 ± 0.14
78 | A143P | -0.428 ± 0.084 | -0.263 ± 0.095
79 | A143M | -0.0424 ± 0.014 | -0.0415 ± 0.16
80 | A143G | -0.0193 ± 0.026 | -0.0434 ± 0.13
81 | A143I | 0.0167 ± 0.013 | 0.029 ± 0.087
82 | A143Q | -0.132 ± 0.026 | 0.0133 ± 0.034
83 | A143W | 0.0273 ± 0.0079 | 0.0969 ± 0.057
84 | A143R | 0.0731 ± 0.029 | 0.00783 ± 0.072
85 | A143K | -0.0203 ± 0.05 | -0.177 ± 0.1
86 | A143T | 0.0678 ± 0.046 | 0.0908 ± 0.11
87 | A143E | -0.492 ± 0.086 | -0.282 ± 0.062
88 | A143V | -0.0163 ± 0.062 | 0.0808 ± 0.095
89 | A143S | -0.0897 ± 0.04 | -0.103 ± 0.1
90 | A143N | -0.0902 ± 0.055 | -0.133 ± 0.23
91 | A143Y | 0.033 ± 0.056 | -0.00625 ± 0.15
92 | A143H | -0.00321 ± 0.1 | -0.079 ± 0.06

Row | Variant | selection coefficient against synonymous wild-type codons (log2) (methotrexate 8.8 µM) | selection coefficient against synonymous wild-type codons (log2) (methotrexate 44 µM)
93 | A143D | -0.578 ± 0.074 | -0.232 ± 0.093
94 | A143F | -0.133 ± 0.097 | 0.148 ± 0.74
95 | A143L | -0.0815 ± 0.034 | -0.166 ± 0.13
96 | D151C | -0.288 ± 0.13 | -0.158 ± 0.11
97 | D151G | -0.0894 ± 0.063 | -0.186 ± 0.08
98 | D151A | -0.0884 ± 0.048 | -0.141 ± 0.12
99 | D151L | -0.311 ± 0.096 | -0.268 ± 0.19
100 | D151E | -0.083 ± 0.085 | -0.12 ± 0.08
101 | D151K | -0.147 ± 0.078 | -0.212 ± 0.14
102 | D151F | -0.369 ± 0.026 | -0.297 ± 0.054
103 | D151H | -0.0972 ± 0.12 | -0.168 ± 0.044
104 | D151I | -0.221 ± 0.07 | -0.18 ± 0.46
105 | H147K | 0.0134 ± 0.084 | -0.128 ± 0.11
106 | H147M | -0.215 ± 0.1 | -0.265 ± 0.17
107 | H147L | -0.206 ± 0.17 | -0.173 ± 0.29
108 | H147W | -0.196 ± 0.1 | -0.344 ± 0.081
109 | H147F | -0.267 ± 0.12 | -0.341 ± 0.091
110 | H147G | -0.0491 ± 0.055 | -0.219 ± 0.23
111 | H147D | -0.0272 ± 0.048 | -0.136 ± 0.13
112 | H147I | -0.252 ± 0.055 | -0.307 ± 0.022
113 | H147T | -0.00831 ± 0.067 | -0.187 ± 0.15
114 | H147P | 0.192 ± 0.042 | 0.161 ± 0.11
115 | H147E | -0.0512 ± 0.062 | -0.175 ± 0.047
